Experimental data from PubChem BioAssay AID1240 (Sanford-Burnham Center for Chemical Genomics, 2008).
Among all 50,000 compounds or so, about 800 (1.6%) showed an effect of 50% or more. This is one part of the list.

Molecular target: Bcl-2-like protein 10 (Homo sapiens) (UniProt Q9HD36)
Test: TR3 peptide-Bcl-B binding displacers, biochemical primary FP assay, phenotype converters (AID 1240);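 note: 0% = Bcl-B with tracer peptide and DMSO and 100% = tracer peptide lacking Bcl-B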
Conditions: GST-Bcl-B / FITC-TR3 peptide fluorescence polarization; stronger effect = higher value; compound at 3.75 mg/L

Chain of UniProt Q9HD36 (Q9HD36 whole entry, looked up): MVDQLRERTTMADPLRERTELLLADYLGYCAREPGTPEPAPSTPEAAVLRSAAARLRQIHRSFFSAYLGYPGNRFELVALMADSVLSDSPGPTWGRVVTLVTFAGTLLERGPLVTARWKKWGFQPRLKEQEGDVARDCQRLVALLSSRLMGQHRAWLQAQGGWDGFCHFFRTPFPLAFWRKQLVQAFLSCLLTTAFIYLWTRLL

Structure (SMILES)	displacement
N#C/C(=C/c1c[nH]c2ccccc12)C(=O)Nc1cccc(Br)c1	90.7%
NC(=O)c1cc(NC(=O)COc2ccc(F)cc2)cc(C(N)=O)c1	7%
CC(C)(C)c1cc(C(=S)N2CCOCC2)cc(C(C)(C)C)c1O	-12.7%
Cc1ccc(-c2cc(-c3ccc(C)cc3O)[nH]n2)cc1	0.3%
O=C(CSc1nc2ccccc2n1Cc1ccccc1)N/N=C/c1ccc([N+](=O)[O-])cc1	-9.9%
O=S(=O)(Nc1cccc(C(F)(F)F)c1)c1cccs1	2.8%
CCOC(=O)c1c(NC(=O)c2ccc(OC)c(OC)c2)sc(C(=O)N2CCCCC2)c1C	-1.2%
O=C(CSCc1ccccc1)Nc1ccccc1Cl	11.1%
COc1ccc(/C=C/C(=O)Nc2c(F)c(F)c(F)c(F)c2F)cc1	10.9%
O=C(CSc1nnc(-c2cccnc2)o1)c1ccc(Br)cc1	8%
C=CCN(CC=C)S(=O)(=O)c1ccc(NC(C)=O)cc1	-11.7%
Cc1ccc(C(C)C)c(OC(=O)c2ccccc2[N+](=O)[O-])c1	3%
O=C(Nc1ccccc1F)c1ccco1	-4.4%
COc1ccc(N2C(=O)CC(Sc3ncccc3C(=O)O)C2=O)cc1 (stereo not drawn)	3%
COc1ccc(C2C3C(=O)N(c4ccccc4Cl)C(=O)C3ON2c2ccccc2)cc1 (stereo not drawn)	4.2%
COc1ccccc1CN1CCN(Cc2ccc([N+](=O)[O-])cc2)CC1	-9.5%
Cc1cnn(-c2cc(Oc3ccccc3)ncn2)c1	-12.5%
COc1cc(OC)cc(C(=O)N2CCN(C3CCCCC3)CC2)c1	-2.2%
O=[N+]([O-])c1ccc2oc(-c3ccccc3)nc2c1	5%
COc1ccc(CSc2nnc3c(n2)[nH]c2ccccc23)cc1	0.4%
COc1ccc(N(CC(=O)Nc2ccccc2Br)S(=O)(=O)c2ccc(C)cc2)c(OC)c1	9.9%
COc1ccc(/C=C2\SC(=O)N(CCC(=O)N3CCN(C)CC3)C2=O)cc1	-15.3%

Structure (SMILES)	displacement
CCN1C(=O)/C(=C\c2cccc(OCCOc3cccc(OC)c3)c2)SC1=S	3.4%
Clc1cccc(CSc2nnc(-c3ccc(Cl)cc3Cl)o2)c1	8.8%
O=C(c1cc2n(n1)C(C(F)(F)F)CC(c1ccccc1)N2)N1CCCc2ccccc21 (stereo not drawn)	1%
COc1ccc(C2NC(c3ccc(OC)c(OC)c3)C(C)C(=O)C2C)cc1OC (stereo not drawn)	-4%
COc1ccc(NC(=O)COc2ccc3ccccc3c2)c([N+](=O)[O-])c1	6.1%
Cc1c(NS(=O)(=O)c2ccccc2)cccc1-c1nc2ncccc2o1	-0.4%
CC(=O)C1=C(O)C(=O)N(c2nc3ccccc3s2)C1c1cccc(F)c1 (stereo not drawn)	-3.9%
O=C(Nc1nc(-c2ccc(F)cc2)cs1)c1ccc(S(=O)(=O)N2CCCCCC2)cc1	129%
Cc1ccccc1-n1c(O)c(C=NCc2ccccc2F)c(=O)[nH]c1=O	1%
Cc1cc(NC(=O)c2ccc(-c3ccc(Cl)cc3)o2)ccc1NC(=O)c1ccco1	18.6%
O=C1CCCC2=C1C(c1ccc([N+](=O)[O-])cc1)Nc1ccc(C(=O)c3ccccc3)cc1N2 (stereo not drawn)	4.6%
CCCN(CCC)c1ccc(/C=N/NC(=O)C(O)c2ccccc2)cc1 (stereo not drawn)	12.4%
O=C1NC(=S)N(c2ccccc2)C(=O)/C1=C/c1ccc(Br)cc1	9.6%
O=S(=O)(Nc1cccc2ccccc12)c1cc(Cl)ccc1Cl	9.5%
COc1ccc(O)c(C(=O)CC(=O)c2ccccc2)c1	8.8%
COc1ccc(-n2c(SC)nc(O)c(Cc3ccccc3)c2=O)cc1	-1.5%
O=C1CCCCC1Oc1ccc2c(-c3ccccc3)cc(=O)oc2c1 (stereo not drawn)	-9.6%
O=C(COc1ccc(Br)cc1)Nc1ccccc1-c1ccccc1	5.9%
O=C1C=CC(=NS(=O)(=O)c2ccccc2)c2ccccc21	21.6%
COc1ccc(N(CC(=O)Nc2cccc(C)c2)S(=O)(=O)c2ccc(C)cc2)c(OC)c1	3.6%
Cc1c(NC(=O)/C=C/c2ccc(Br)cc2)c(=O)n(-c2ccccc2)n1C	-1.6%
C=CCNC(=O)C(=O)Nc1ccc(OC)c(Cl)c1	11.2%

Structure (SMILES)	displacement
COc1cc(/C=C2\SC(=Nc3ccccc3)N(c3ccccc3)C2=O)cc(Br)c1OC	4.4%
Cc1ccc(-n2c(C)cc(/C=N/NC(=O)c3ccncc3)c2C)cc1	-24%
Cc1c(OCC(=O)c2ccccc2)ccc2c3c(c(=O)oc12)CCCC3	-7.9%
COc1ccc(CC(=O)O/N=C(\N)c2ccc([N+](=O)[O-])cc2)cc1OC	6.1%
CCOc1cc(OCC)cc(C(=O)Nc2ccccn2)c1	-0.7%
CCC(Oc1ccccc1)C(=O)Nc1ccc(S(=O)(=O)Nc2cnc3ccccc3n2)cc1 (stereo not drawn)	-6.9%
COc1ccc(/C=N/c2sc(C)c(C)c2C#N)cc1	-10.4%
COc1ccc(/C(=N/O)C(C)(C)NO)cc1	12.8%
CC(C)NC(=O)COc1ccc(C=C2C(=O)NC(=O)NC2=O)cc1	1.8%
CCOc1ccc2c(c1)C(C)CC(C)(C)N2C(=O)Nc1ccccc1 (stereo not drawn)	2.4%
CC(=O)Oc1ccc(C(=O)Nc2ccc(C(=O)O)cc2)cc1	-0.3%
O=C1Oc2ccccc2C(=O)/C1=C/c1cccc2ccc(O)cc12	1.8%
Nc1c(Cl)cc(N2C(=O)C=CC2=O)cc1Cl	10.9%
O=C1CN(C(=O)OCc2ccccc2)C(c2ccccc2)c2cc(Br)ccc2N1 (stereo not drawn)	-1.1%
CCOC(=O)c1c(NC(=O)c2ccccc2F)sc2c1CCCCCC2	-7.8%
COc1ccc(/C=C2/C=C(c3ccccc3)OC2=O)cc1	-15.2%
C/C=C/C(=O)N1c2ccc(OC)cc2-c2c(ssc2=S)C1(C)C	3.1%
O=C(NCC1CCCO1)c1ccc(C2SCC(=O)N2Cc2ccccc2)cc1 (stereo not drawn)	-12.3%
Cn1cc(/C=C/c2nc3ccccc3c(=O)n2-c2ccc([N+](=O)[O-])cc2)c2ccccc21	5.5%
O=[N+]([O-])c1ccc2c(c1)S(=O)(=O)N=C2Nc1ccc(Br)cc1	14.7%
N#C/C(=C\c1c(O)n(-c2c(Cl)cccc2Cl)c2ccccc12)C(N)=NCc1ccccc1	-5%
O=C(Nc1ccc([N+](=O)[O-])cc1)C1C2C3CCC(C3)C12 (stereo not drawn)	-3.5%

Structure (SMILES)	displacement
O=C(NNc1ccccc1)c1ccccc1Cl	-1.2%
CCc1ccccc1NC(=O)CC1Sc2ccccc2NC1=O (stereo not drawn)	10.7%
O=C(NC(NC(=S)Nc1ccccc1I)C(Cl)(Cl)Cl)c1cccc([N+](=O)[O-])c1 (stereo not drawn)	-3.9%
CCOC(=O)c1ccc(NC(=O)C(=O)NCc2ccc(C)cc2)cc1	8.8%
CC1(C)C(c2ccco2)=[N+]([O-])C2(CCCCCC2=O)N1O (stereo not drawn)	1.1%
O=C(NNC(=O)c1ccco1)c1cccc(Cl)c1	-8.7%
O=C(Cn1cc(/C=C2/C(=O)NC(=S)N(c3ccccc3F)C2=O)c2ccccc21)Nc1ccccc1	30.7%
CN(C)CCOCCOCCN(C)C	10.5%
COC(=O)c1sc(NC(=O)C2CC3CCC2C3)c(C(N)=O)c1C (stereo not drawn)	-4%
CSCCNS(=O)(=O)c1ccc(C)c([N+](=O)[O-])c1	-12.8%
COCCNCCOc1c(C)cc(Cl)cc1Cl	-9.3%
Cn1c(=O)c2c(ncn2CC(=O)N2CCN(Cc3ccccc3)CC2)n(C)c1=O	-3.8%
C=CCN1C(=O)/C(=C/c2ccc(Cl)cc2)C(=O)NC1=S	-0.7%
CCOC(=O)c1c(N)sc(C(=O)Nc2cc(C)cc(C)c2)c1C	4.1%
O=C1/C(=C/c2ccccc2)SC(=S)N1c1ccccc1Cl	-7.4%
Cc1ccc2oc(-c3cc(NC(=O)c4ccc(C(C)(C)C)cc4)ccc3O)nc2c1	45.9%
Cn1c(CN2CCCC2)c(-c2ccccc2)c2cc([N+](=O)[O-])ccc21	-0.8%
CC(C)CN1C(=O)/C(=C/c2ccco2)SC1=S	18.1%
Cc1cc(C)nc(/N=C(/N)Nc2cccc(OCc3ccccc3)c2)n1	-4.3%
Clc1ccc(Nc2nc(-c3ccncc3)nc3ccccc23)cc1	109%
Cc1ccc(C2CC(C(F)(F)F)n3nc(C(=O)Nc4cc(C(F)(F)F)ccc4Cl)cc3N2)cc1 (stereo not drawn)	15.3%
O=S(=O)(c1ccc(Cl)cc1)N1CCN(Cc2cccc(F)c2)CC1	-16.5%

Structure (SMILES)	displacement
CC1Oc2ccccc2C=C1/C=C1\SC(=S)N(CCc2ccccc2)C1=O (stereo not drawn)	11.2%
NC(=O)C1=CC2([N+](=O)[O-])CN(Cc3ccccc3)CC([N+](=O)[O-])(C1)C2 (stereo not drawn)	36%
COc1cc(/C=N/N2C(=O)C3C4C=CC(C4)C3C2=O)cc(I)c1O (stereo not drawn)	3.3%
COc1ccc(-c2cc(-c3ccccc3O)[nH]n2)cc1	2.8%
Cn1ccnc1C(O)c1cc(C(C)(C)C)c(O)c(C(C)(C)C)c1 (stereo not drawn)	8.7%
COc1ccc(N(CC(=O)Nc2ccccc2Br)S(C)(=O)=O)cc1	-1.5%
Cc1ccc(SCC(=O)Nc2cccc([N+](=O)[O-])c2)cc1	7.9%
CCOC(=O)C1=C(O)/C(=C/c2ccccc2)SC1=Nc1ccc(OC)cc1	-1.3%
O=C(COc1ccc(Br)cc1)Nc1ccc2nn(-c3ccc(F)cc3)nc2c1	50.3%
CC(=O)N1CCN(c2ccc(NC(=O)COc3ccccc3C)cc2)CC1	15.4%
COCCNC(=O)c1cc2nc(-c3ccc(Cl)c(Cl)c3)cc(C(F)(F)F)n2n1	-13%
Clc1ccc(N2CCN(N=Cc3ccc(Cl)c(Cl)c3)CC2)cc1	-2.6%
CC1=C(C(=O)Nc2ccccc2Cl)C(c2ccccc2F)NC(=S)N1 (stereo not drawn)	-14.8%
CCC(=O)N1c2ccccc2NC2=C(C(=O)CC(c3ccccc3)C2)C1c1cccc([N+](=O)[O-])c1 (stereo not drawn)	-7.8%
CCSC1=C(C#N)C(c2ccc(O)cc2)C(C(=O)Nc2ccccc2)=C(C)N1 (stereo not drawn)	2.3%
CCC1(C)CC(CCNCc2ccc(F)cc2)(c2ccccc2OC)CCO1 (stereo not drawn)	2.7%
O=C(O)COc1ccccc1/C=N/NC(=O)Cc1ccc(Br)c2ccccc12	10.1%
Cc1n[nH]c(C)c1CCCCCCOc1ccc(F)cc1	6.9%
Cc1c(C(=O)N2CCCCC2)sc(NC(=O)Cc2ccccc2)c1C#N	-4.5%
O=C1N=c2ccc([N+](=O)[O-])cc2=C1c1sc(=S)n(Cc2ccccc2)c1O	1.1%
